Test results reported in PubChem BioAssay AID624296 (National Center for Advancing Translational Sciences (NCATS), 2012).
Screen size: about 350,000 compounds; about 9,900 (2.8%) were called active. This list was built around the results that the source calls inconclusive (neither active nor inactive); the mix of calls is not that of the screen. Calls follow the shape of the dose curve; as a rule, active = well fitted activation curve with a large enough effect; inconclusive = small, poorly fitted or top-dose-only effect; inactive = no such curve, though single readings can be large or run the other way. Potencies of inconclusive entries are left out as doubtful fits.

test: A quantitative high throughput screen for small molecules that induce DNA re-replication in MCF 10a normal breast cells.; also: nearly all actives have a fitted effect of over 50% in size; conditions: MCF 10A DNA re-replication, Hoechst nuclear intensity, 48 h; series mostly up to 46.1 µM
Potency is read from the fitted curve at half-maximal effect; tags tell the direction and shape of the fitted curve.

SMILES	Potency
CC(=O)Cc1nsc(NC(=O)c2ccc(-c3cc(Cl)ccc3Cl)o2)n1	inconclusive [activator, partial curve, poor fit]
NCCCC[C@H]1CNC(=O)C(=O)N1CCc1cccc2ccccc12	inactive
CCNc1nc(NCC)nc(N/N=C/c2ccc(OC)cc2)n1	inactive
Cn1c(SCC(=O)NNC(=O)Nc2ccccc2)nnc1-c1ccccc1	inactive
COc1ccc(CCNC(=O)c2c[nH]c3ccccc3c2=O)cc1OC	inconclusive [activator, partial curve]
O=S(Cc1ccccc1)CC(O)(c1ccc(Cl)cc1)c1ccc(Cl)cc1 (stereo not drawn)	inconclusive [activator, single point]
O=C(/C=C/c1cccs1)N1CCN(c2ccc(O)cc2)CC1	active: 15.8 µM
CCCC(=O)Nc1ccc(NC(=O)c2ccccc2)nc1	inconclusive [activator, partial curve, poor fit]
CC1CCN(C(=S)Nc2ccc(F)cc2)CC1	inconclusive [activator, full curve, poor fit]
Cc1cnc(NC(=O)C2CCCC2)s1	inconclusive [activator, partial curve]
COc1ccc(Cl)cc1NC(=O)Nc1ccccc1SC	inconclusive [activator, partial curve, poor fit]
N#Cc1ccc(-c2ccco2)nc1SCc1ccccc1	inconclusive [activator, single point]
O=[N+]([O-])c1ccc2c(c1)ncn2CCc1ccccc1	inconclusive [activator, partial curve, poor fit]
COc1ccc(-n2cc(-c3ccccc3)c3c(=O)[nH]cnc32)cc1	inactive
O=C1NC(c2ccccc2)=C(c2nc3ccccc3s2)C(c2ccccc2)N1 (stereo not drawn)	inconclusive [activator, single point]
O=C(C[C@H]1C(=O)N(Cc2ccccc2)C[C@@H]1Cc1ccccc1)Nc1ccccc1	inconclusive [activator, single point]
NC(=S)NNc1ccnc2cc(Cl)ccc12	inactive
Clc1cc(Cl)c(OCC#CI)cc1Cl	active: 21.1 µM
CC(C)C(Sc1nc(-c2ccccc2)cc(-c2ccccc2)c1C#N)C(=O)O (stereo not drawn)	inconclusive [activator, single point]
Cc1cccc(-c2nc(CN3CCCC(C(=O)NC4CCCC4)C3)c(C)o2)c1 (stereo not drawn)	inconclusive [activator, partial curve, poor fit]
N#CCc1c(C#N)c(N)nc(N2CCCC(O)C2)c1C#N (stereo not drawn)	inconclusive [activator, single point]
Cc1sc2ncnc(N3CCC(C(=O)NNC(=O)COc4ccccc4Cl)CC3)c2c1C	active: 4.11 µM
COc1ccccc1NC(=O)C1=C(C)NC(SCC(=O)Nc2ccc(C(=O)O)cc2)=C(C#N)C1c1cccs1 (stereo not drawn)	inactive

SMILES	Potency
CC1Cc2ccccc2N1C(=O)C1CCCCN1S(=O)(=O)c1ccccc1 (stereo not drawn)	inconclusive [activator, single point]
CC(=O)Nc1ccc(S(=O)(=O)c2c(N)n(CCN3CCOCC3)c3nc4ccccc4nc23)cc1	inactive
CCOC(=O)c1sc2nccc(N(C)C)c2c1N=CNOCc1c(F)cccc1Cl	active: 14.6 µM
NC(=O)c1ccccc1NC(=O)CC12CC3CC(CC(C3)C1)C2	inconclusive [activator, full curve]
CCOc1ccsc1C(=O)O	inconclusive [activator, single point]
Cc1c(C)n(CCCN(C)C)c2ncnc(Nc3ccccc3)c12	inconclusive [activator, partial curve, poor fit]
O=C(O)Cc1sc(Nc2cccc3ccccc23)nc1-c1ccc(Cl)cc1	active: 7.31 µM
CC(C)CN(CC(C)C)C(=O)c1cc2c(=O)n3ccccc3nc2s1	inconclusive [activator, partial curve, poor fit]
COc1cc(C2c3[nH]c4ccccc4c3CC3COC(=O)N32)cc(OC)c1O (stereo not drawn)	inconclusive [activator, full curve]
CCc1sc(N(C(=O)Cc2ccccc2)c2ccccc2)nc1-c1ccccc1	inconclusive [activator, full curve, poor fit]
CCCCCCOC(=O)c1ccccc1NC(=O)/C=C/C(=O)O	inconclusive [activator, single point]
CNC(=S)N/N=C/c1c2ccccc2c(Cl)c2ccccc12	inconclusive [activator, single point]
Cc1ccc(C(=O)N2C3=C(CCCC3)C(=O)NC23CCCCC3)cc1	inconclusive [activator, single point]
N#CC1=C(N)OC2=C(C(=O)CCC2)C1c1cc2c(cc1Cl)OCO2 (stereo not drawn)	inactive
CC(=O)c1ccc(OCc2cc(C(=O)N3CCN(c4ccccc4)CC3C)no2)cc1 (stereo not drawn)	inactive
CC(=O)NNc1ncnc2c1cnn2-c1ccccc1	inactive
CCOC(=O)c1ccc(NS(=O)(=O)c2cc(-c3nnnn3C(C)C)ccc2OC)cc1	inconclusive [activator, partial curve, poor fit]
CN(C)CCCNC(=O)/C(=C\c1ccc(-c2ccc(Br)cc2)o1)NC(=O)c1ccccc1	inconclusive [activator, partial curve, poor fit]
CCOc1ccc(S(=O)(=O)NCCSCc2ccco2)cc1	inconclusive [activator, single point]
CN(C)C(CNC(=O)c1ccc(S(=O)(=O)Nc2cccc(C(F)(F)F)c2)cc1)c1ccco1 (stereo not drawn)	inconclusive [activator, single point]
Cc1ccc(O)c(C=Nc2ccc3[nH]ncc3c2)c1	inactive
CC(CCNC(=O)c1ccccc1)(CCNC(=O)c1ccccc1)[N+](=O)[O-]	inactive
COc1ccc(/C=C2\SC(=O)N(CCNC(=O)CCS(=O)(=O)c3ccc(C)cc3)C2=O)cc1	inconclusive [activator, partial curve, poor fit]

SMILES	Potency
COc1ccc(C)cc1-n1c(N)c(C#N)c(C#N)c1-c1ccc(OC)c(OC)c1OC	inconclusive [activator, full curve, poor fit]
COc1ccc(CNC(=O)CC2C[C@H](C(=O)N3CCOCC3)[C@@]3(CCC4CCCC4)c4[nH]c5ccccc5c4CCN3C2=O)cc1OC (stereo partly drawn)	inactive
COC(=O)c1ccc(CCc2cc(O)ccc2O)cc1	inconclusive [activator, full curve]
COc1ccc(/C=N/NC(=O)CCc2ccccc2)cc1O	inconclusive [activator, partial curve, poor fit]
COc1ccc(CC2(CO)CCN(Cc3ccncc3)CC2)cc1	inconclusive [activator, partial curve, poor fit]
O=C1CC(c2ccccc2)CC(O)=C1C=NCc1ccccc1 (stereo not drawn)	inconclusive [activator, partial curve, poor fit]
CCN(CC)c1ccc(C(=O)N/N=C/c2ccccc2OC(F)F)cc1	inconclusive [activator, partial curve, poor fit]
O=C1CCCc2oc3ccc(NS(=O)(=O)c4cccc5cccnc45)cc3c21	inconclusive [activator, single point]
COc1ccc(NC(=S)N/N=C/c2cccn2Cc2ccc(F)cc2)cc1	inactive
Cc1cc(C)n(-c2nc3ccccc3nc2Nc2ccc3[nH]c(=O)[nH]c3c2)n1	inconclusive [activator, single point]
CCOC(=O)Nc1cccc(Nc2ccccc2)c1	inactive
CCN(c1ccccc1)S(=O)(=O)c1ccc(OC)c(NC(=O)C2CC2)c1	inconclusive [activator, single point]
COc1ccc(-n2c(CN3CCC(C)CC3)nc3ccc([N+](=O)[O-])cc3c2=O)c(OC)c1	inactive
CCNc1nc(NCC)nc(N/N=C/c2ccc([N+](=O)[O-])o2)n1	inactive
CCc1cccc(C)c1NC(=O)CN1CCN(S(=O)(=O)c2ccc(C(C)(C)C)cc2)CC1	inconclusive [activator, single point]
Cc1ccc(S(=O)(=O)Nc2cc(Cl)ccc2-n2cncn2)cc1	inactive
CCN(CC)S(=O)(=O)c1ccc(C)c(NC(=S)N2CCN(Cc3ccc4c(c3)OCO4)CC2)c1	inconclusive [activator, single point]
COc1ccc(-n2nc(C(=O)NCC(=O)N(C)Cc3ccccc3)c3ccccc3c2=O)cc1OC	inconclusive [activator, partial curve, poor fit]
O=C(Cc1cccc(NC(=O)C2CCCN(C(=O)C3CCC3)C2)c1)Nc1cccc(C(=O)N2CCOCC2)c1 (stereo not drawn)	inconclusive [activator, full curve]
CCN(c1ccccc1)S(=O)(=O)c1nnc(NC(=O)c2ccccc2OC)s1	inactive
C=CCn1c(=O)c2ccc(C(=O)NCc3ccccc3)cc2n(Cc2ccc(Cl)cc2)c1=O	inconclusive [activator, partial curve]
Cc1ccc(Cl)cc1N1CCN(Cc2nc3c(c(=O)[nH]c(=O)n3C)n2CCc2ccccc2)CC1	inconclusive [activator, full curve]
